B1: chr10:110404880:110404881:-_ENSMUSG00000035798_ENSMUST00000041723|mus_mus|FALSE|FALSE (ssRNA)
RNA: GGGAGUUCUACAGUCCGACGAUCGUUUUUGUGAUACUUGUCACCAAGGUUAACUGAAACAUUGAAUGUUAAAAGCAAUCUAGUUGGAUCCACACUAUGUGUUCUAUAAGCUGCCCACAUUAAAGGGGUCAUUCCAUUCUGAUCCAACAGAGGAUUGAGCAUCA
B2: chr3:185639903:185639904:-_ENSG00000136527_ENST00000456380|hu_hu|FALSE|FALSE (ssRNA)
RNA: GGGAGUUCUACAGUCCGACGAUCUUGUUAUAGAGAAAUCAACUCUGAUCCUACGCCCAUCAAGCUCCAUUCCAUUGGCACGUUCUUUAGCUUCCUUGGCAUCAUCUACAUUUUCAAAAUAUACAAAGGCAAAUCCUCUUGAACCAACAGAGGAUUGAGCAUCA
B3: chr11:46405157:46405158:+_ENSG00000110492_ENST00000395566|hu_hu|hu_hu_hu_mus_False|58_78 (ssRNA)
RNA: GGGAGUUCUACAGUCCGACGAUCCCCUCCCCACUUUGGGCACUUGGUGUGGGCGUGAAGGCAGGGCCGUGAUUGACAAAGCUAACGGGAAGACAAAAGGCACUGGUGGGUUAUAUCUUGGGCCUGUGGGAGAGGAGGGCUCCGCAACAGAGGAUUGAGCAUCA
B4: chr9:14812383:14812384:-_ENSMUSG00000031934_ENSMUST00000164273|mus_mus|mus_mus_mus_hu_True|48_68 (ssRNA)
RNA: GGGAGUUCUACAGUCCGACGAUCAUAGCCCAGGUAGAUACACGCUAACAGUAUAAUGAUGAGUGUCACCAGCCGGCAGCUAAUGUAUUUCAUGAUUAAAUUAUUAGAAUUUUUCUUUGUCUUCAAGUACUGCUCCACAAUUGGCAACAGAGGAUUGAGCAUCA
B5: chr13:74460350:74460351:-_ENSMUSG00000021577_ENSMUST00000022062|mus_hu|FALSE|FALSE (ssRNA)
RNA: GGGAGUUCUACAGUCCGACGAUCUCACAAGAAUGAAGCAAGGGACAAAGGUAAGUGCCACGCUCCCUGGCCACUGGGUUCCUGGCAAGCUCCCAGCCACUAGGUGCCAAUCUCCCUUCAAUGUACUCCUUCUUCCCCAGAGUGCAACAGAGGAUUGAGCAUCA
B6: chr2:241070358:241070359:-_ENSG00000172428_ENST00000607357|hu_hu|motif|central (ssRNA)
RNA: GGGAGUUCUACAGUCCGACGAUCGAACAGAAUCAUCUAGGUCGUUAAGAACAGUCUUAUCUUUCUGGUUAACCAGGUCCGGAAUUCAAGGGAUUUCCACGUGUUCUUUAAAACCACCUGAAACUGUCCUGCGCAGGCUCACACCAACAGAGGAUUGAGCAUCA
B7: chr11:55313332:55313333:+_ENSMUSG00000018583_ENSMUST00000018727|mus_mus|motif|central (ssRNA)
RNA: GGGAGUUCUACAGUCCGACGAUCCUCUUUACAAUCUAUUCCUCCUAAAGUAUCAUUCCGGAAAACUGGGAAUGAAGGACGGAGGGGUCAGGGGAGGAAAGGGGGUUGGGAGCACACACCAUGAACACAAGCGAAAUGAAAAUUCAACAGAGGAUUGAGCAUCA
B8: chr1:160275524:160275525:-_ENSG00000122218_ENST00000241704|hu_mus|motif|central (ssRNA)
RNA: GGGAGUUCUACAGUCCGACGAUCACACAGAGCAUCCAGCUUGCGGUUACAGAUCACAAUGGCAUGCUUGGCCAGUAACGCGGCAUGAGACAUGUCUGCCGACCAGAUAACAUAUUUCACCUUGGAAAUCUUCACUGAUGCCAGCAACAGAGGAUUGAGCAUCA
B9: chr6:31457689:31457690:+_ENSMUSG00000025609_ENSMUST00000142469|perfect_dup|FALSE|FALSE (ssRNA)
RNA: GGGAGUUCUACAGUCCGACGAUCGAUGAGGUCUACCAGGUUGCCUUUAGGAGGAGUCAUGCUGUCAGGAAAGAAAUUUACUAAGGUGUCAAAGAGCUGAGUUCUUUGAGCAUAGGUGUGAUCCACAUCAGAAAAGCCCAGAGCCAACAGAGGAUUGAGCAUCA
B10: chr7:141441981:141441982:+_ENSG00000106028_ENST00000265304|hu_mus|hu_hu_hu_mus_False|8_8 (ssRNA)
RNA: GGGAGUUCUACAGUCCGACGAUCCUCAUGUCUUACAAACUGACGAAAUACCUGUAACACAGGUCUUCGAAACAUGGCUUCUGUUUUUCUUACAACCUAAUCUUUAGGCUUUUCCUAAAGGAAAGAAUAACCCGAGCAAAAUGACAACAGAGGAUUGAGCAUCA
B11: chr10:33214929:33214930:-_ENSG00000150093_ENST00000302278|hu_mus|FALSE|FALSE (ssRNA)
RNA: GGGAGUUCUACAGUCCGACGAUCAACAAGUUCAUUGAAAAACUCUCCUCUGUCAGUAAGACUAAGCACAUUUUUGUAGCUAAAUGGGCUGGUGCAGUUUUGUUCACUUGUACAAGGAUUUCUUAGCUUUGCUGGGGUUGUGCUCAACAGAGGAUUGAGCAUCA
B12: chr10:7421922:7421923:+_ENSMUSG00000040021_ENSMUST00000165952|mus_mus|FALSE|FALSE (ssRNA)
RNA: GGGAGUUCUACAGUCCGACGAUCAUCAGACUGACCACCACCAUUCUGAACUCCAGGUCGCCCUGGUGUAAAGUUAAAUUUGCUAGUACUCUGCAUGAUGAUGGGUUGUCUACCAACUGGAACAGAACUAAUGGCCCUCUGAGCCAACAGAGGAUUGAGCAUCA
B13: chr14:56114876:56114877:+_ENSMUSG00000022211_ENSMUST00000076236|mus_hu|FALSE|FALSE (ssRNA)
RNA: GGGAGUUCUACAGUCCGACGAUCGAGGGCAUUGGCCUCAUCCGUGGCGAGGAGCCCAGGAUUCUUGCUCAGGUCCAGGUAUCGAAGGGAGCUGGCAAAUGCUGGGUUUGCCCCGAAGGUCUGGCCGAGUGCCUGGAGCCCUCGCAACAGAGGAUUGAGCAUCA
B14: chr12:39763582:39763583:-_ENSG00000139116_ENST00000544797|hu_mus|hu_hu_hu_mus_False|58_108 (ssRNA)
RNA: GGGAGUUCUACAGUCCGACGAUCCUCUAAGAAUUGGGCAUUCACUUUGAAUUCAGGAGGGGGCAGCCCGUUUUUAAUUGCUAUGUGCUUUUUCUCAUCAAUACUCUUGAACAGGUGUCUAACAGCACGAGAGAUGAUGCCCUGCAACAGAGGAUUGAGCAUCA
B15: chr15:81535460:81535461:-_ENSMUSG00000022391_ENSMUST00000052374|mus_mus|FALSE|FALSE (ssRNA)
RNA: GGGAGUUCUACAGUCCGACGAUCAGGGAGAUGAAGAUCUGCAAUCCAGACAGGAAGUACAUACCCACACACACACACCAAACCAACACAGUAUCAAAGGACCAAUAUGACACAGGAGACAAGACCCUCUCCCUUCCUCUGGUCCAACAGAGGAUUGAGCAUCA
B16: chr10:76735483:76735484:+_ENSG00000156650_ENST00000287239|hu_hu|motif|central (ssRNA)
RNA: GGGAGUUCUACAGUCCGACGAUCAGUGCAUGACUGUUUCUGAGAGACCUUUUUCCUUGGACGAUAGUGCUUUGAAAAGUCGGUAAUUUCACCUCGUGAUCUGCGACCAUCAGGUGAUGGUGUAAAAAACUUAGUAAGGCCAUCCAACAGAGGAUUGAGCAUCA
B17: chr1:163117127:163117128:-_ENSG00000143248_ENST00000313961|hu_mus|hu_hu_hu_mus_False|18_98 (ssRNA)
RNA: GGGAGUUCUACAGUCCGACGAUCUGCUACAAAGGAUGGAGGAAAUAUCACAGGGCAACUUUUGGAAGCCUGACCAGAUGACUACUUGAUUAGCUCCUUAUAAAAUUCAGAGCGCACAAAGCGAGGCAGAGAAUCCUUCUCCAUCAACAGAGGAUUGAGCAUCA
B18: chr2:9570881:9570882:+_ENSG00000119203_ENST00000238112|hu_mus|hu_hu_hu_mus_False|18_98 (ssRNA)
RNA: GGGAGUUCUACAGUCCGACGAUCACUUGUCUUCUGAAGAAACCAGGGCAGGGCUCCACAGUGAUCCAAAUGGAAAUGACUGAUCAACAGAAGGUCGAUCUCAGCUGGGUCGAUAAGAUCAAUAUAAGGAAGGGCAUCCAUUCCCAACAGAGGAUUGAGCAUCA
B19: chr12:73047227:73047228:+_ENSMUSG00000034574_ENSMUST00000085299|mus_mus|motif|central (ssRNA)
RNA: GGGAGUUCUACAGUCCGACGAUCUUCAAAUCUUUUGGCAAAUUCUAGUUCAUCUUCAUUUCGGAGCAUUUCAAAAAAGUCGGAAUGCCUGUCUAGUGUUGAAUUUUCAUGUUCCCUUAAUUUAUCUAUAACAGGUUGAAUUCCCAACAGAGGAUUGAGCAUCA
B20: chr8:95500983:95500984:-_ENSG00000164944_ENST00000437199|hu_hu|hu_hu_hu_mus_True|58_58 (ssRNA)
RNA: GGGAGUUCUACAGUCCGACGAUCAGAACACAUCUAUCGAGUAAAGGACCGUACAUGACGGCCUCUACCACUGCCUCCCACUAACAACUUUCCUCUCGAGCCUCCACUGCCGCUAUUUGUACUAGCCCAGGACGGUCCCAGGCCCAACAGAGGAUUGAGCAUCA
B21: chr14:45963330:45963331:+_ENSMUSG00000021832_ENSMUST00000022380|perfect_dup|FALSE|FALSE (ssRNA)
RNA: GGGAGUUCUACAGUCCGACGAUCGAUUUUCAGUAUGUCUAAUCUUGCUUGUUCAUUUGGCAAAUCAAUAUGUAUUUUUCUAUCUAAUCUUCCUGGACGCAGCAAAGCAGGAUCCAGUGUAUCUGGUCUGUUUGUAGCCAUGAUCAACAGAGGAUUGAGCAUCA
B22: chr17:64801638:64801639:+_ENSG00000154229_ENST00000413366|hu_mus|hu_hu_hu_mus_False|28_68 (ssRNA)
RNA: GGGAGUUCUACAGUCCGACGAUCUAUAUAUAUAUAUACAUAUGUACACAUAUAUAGUAAAACCCUAAUCUAUCACGUAAAGUAGCCAUUCAUUUUUAAAAUUACAUCUACAUUUAAAAAUUAAUAUAUCUGAUAGAGUGCCAGCAACAGAGGAUUGAGCAUCA

Some of the results follow.

The target of this assay is T1, UNK ZnF1-3 (human, UniProt Q9C0B0 31-174).
T1 sequence: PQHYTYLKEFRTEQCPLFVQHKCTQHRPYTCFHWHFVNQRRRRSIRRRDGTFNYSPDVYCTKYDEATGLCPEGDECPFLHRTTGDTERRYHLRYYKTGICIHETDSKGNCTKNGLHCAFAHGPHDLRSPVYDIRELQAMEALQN
The assay can be described thus: nsRBNS (natural sequence RNA bind-n-seq); RBNS binding buffer (assumed for nsRBNS): 25 mM Tris pH 7.5, 150 mM KCl, 3 mM MgCl2, 0.01% Triton X-100, 500 ug/ml BSA, 20 U/ml SUPERase-In, 4 C; UNK is unkempt and MSI1 is Musashi-1; names of the RNAs are library labels; protein concentration not given here; high values mean tight binding.
As for B1, the binding signal was 0.848 enrichment R.

In turn, B2 yielded a binding signal of 1.11 enrichment R. As for B3, the figure is 2.16 enrichment R; as for B4, 2.25 enrichment R; as for B5, 1.1 enrichment R.

In the case of B6, the binding signal was found to be 1.01 enrichment R.

For the molecule B7, the binding signal turned out to be 1.31 enrichment R. With B8, the binding signal was found to be 0.87 enrichment R. B9 had a binding signal of 1.71 enrichment R.

The molecule B10 came in with a binding signal of 0.689 enrichment R. In turn, B11 came in with a binding signal of 0.767 enrichment R.

B12 yielded a binding signal of 1.16 enrichment R. Molecule B13 displayed a binding signal of 0.894 enrichment R. In the case of B14, the binding signal was 1.95 enrichment R. B15 returned a binding signal of 1.41 enrichment R. The molecule B16 returned a binding signal of 0.739 enrichment R. As for B17, the figure is 1.66 enrichment R; as for B18, 1.53 enrichment R; as for B19, 0.606 enrichment R.

For B20, the binding signal is 1.15 enrichment R. B21 had a binding signal of 0.578 enrichment R. B22 displayed a binding signal of 1.44 enrichment R.

The values are drawn from PMC12136788.
